The values that follow come from the antibiotic and cytotoxicity screens of Wong et al. (2023).

Some of the results follow.

One experiment concerns HSkMC. The experiment in a line: cytotoxicity call (relative viability < 0.9). The following applies: 10 µM.
The next experiment has as its system HepG2. The experiment in a line: cytotoxicity call (relative viability < 0.9). The following applies: 10 µM.
For a further experiment, the system named is S. aureus RN4220. In words: growth inhibition call (relative growth <= 0.2). The following applies: 50 µM.

`COc1ccc2c3c([nH]c2c1)[C@@H](CO)N(C[C@]13CN(C1)S(=O)(=O)C)C(=O)C1CC1`: the cytotoxicity call in the experiment on HSkMC and with HepG2 was “inactive” in each case. The growth inhibition call with S. aureus RN4220 is “inactive”.

Turning to `C[C@H](CO)N1C[C@H](C)[C@@H](CN(C)Cc2ccccc2)OCCCC[C@H](C)Oc2ccc(NS(=O)(=O)c3ccc(Cl)cc3)cc2C1=O`, the cytotoxicity call in the experiment on HSkMC and in the experiment with HepG2 was “inactive” throughout. The growth inhibition call in the experiment on S. aureus RN4220 was “inactive”.

On to `COCC#Cc1ccc([C@H]2[C@H](CO)N3C(=O)CN(C(=O)CN4CCOCC4)C[C@@H]23)cc1`, for which the cytotoxicity call in the experiment on HSkMC and in the experiment with HepG2 was “inactive” each time. For the same compound, in the experiment on S. aureus RN4220, the growth inhibition call is “inactive”.

As to `COc1ccc(S(=O)(=O)N(C)C[C@@H]2Oc3ccc(NC(=O)Nc4c(C)noc4C)cc3CC(=O)N([C@@H](C)CO)C[C@@H]2C)cc1`, the cytotoxicity call in the experiment with HSkMC and in the experiment with HepG2 was “inactive” throughout. For the same compound, the growth inhibition call in the experiment on S. aureus RN4220 was “inactive”.

Turning to `C[C@H](CO)N1C[C@H](C)[C@@H](CN(C)C(=O)CN2CCOCC2)Oc2ncc(C3=CCCCC3)cc2C1=O`, the cytotoxicity call in the experiment with HSkMC and in the experiment with HepG2 was “inactive” in each case. Further, the growth inhibition call with S. aureus RN4220 was “inactive”.

With `CC(O)C1C(=O)N2C(C(=O)O)=C(SC3CNC(C(=O)N(C)C)C3)C(C)C12` (stereo not given), the cytotoxicity call in the experiment on HSkMC and in the experiment with HepG2 was “inactive” each time. In the experiment on S. aureus RN4220, the growth inhibition call was “active”.

In the case of `O=C(O)[C@H]1O[C@@H](Oc2c(-c3ccc(O)c(O)c3)oc3cc(O)cc(O)c3c2=O)[C@H](O)[C@@H](O)[C@@H]1O`, the cytotoxicity call in the experiment on HSkMC and in the experiment with HepG2 was “inactive” in each case. For the same compound, the growth inhibition call with S. aureus RN4220 was “inactive”.

Regarding `CNCCc1ccccn1`, the cytotoxicity call in the experiment with HSkMC and with HepG2 was “inactive” throughout. The growth inhibition call in the experiment on S. aureus RN4220 was “inactive”.

Regarding `O=C(C[C@@H]1CC[C@@H]2[C@H](COC[C@H](O)CN2C(=O)c2cccnc2)O1)NCc1ccc(-c2ccccc2)cc1`, the cytotoxicity call with HSkMC and in the experiment on HepG2 was “inactive” each time. Moreover, the growth inhibition call in the experiment with S. aureus RN4220 was “inactive”.

For `C[C@@H]1CN([C@@H](C)CO)C(=O)c2cc(NC(=O)Nc3ccc4c(c3)OCO4)ccc2O[C@@H](C)CCCCO[C@H]1CN(C)Cc1ccc(C(=O)O)cc1`, the cytotoxicity call with HSkMC and with HepG2 was “inactive” each time. Moreover, the growth inhibition call in the experiment with S. aureus RN4220 is “inactive”.

`O=c1ccc2ccc(O)cc2o1`: the cytotoxicity call with HSkMC and in the experiment with HepG2 was “inactive” each time. Moreover, in the experiment on S. aureus RN4220, the growth inhibition call is “inactive”.

Turning to `Cc1ccc(S(=O)(=O)Nc2ccc3c(c2)CC(=O)N([C@H](C)CO)C[C@H](C)[C@@H](CN(C)C(=O)Nc2cccc4ccccc24)O3)cc1`, the cytotoxicity call with HSkMC and with HepG2 was “inactive” throughout. Further, the growth inhibition call with S. aureus RN4220 is “inactive”.

On to `C[C@@H]1CN([C@@H](C)CO)C(=O)CCCn2cc(nn2)CO[C@H]1CN(C)C(=O)Nc1ccc2c(c1)OCCO2`, for which the cytotoxicity call in the experiment with HSkMC and in the experiment on HepG2 was “inactive” in each case. In addition, the growth inhibition call in the experiment with S. aureus RN4220 was “inactive”.

Turning to `CC(C)CC#Cc1ccc2c(c1)O[C@@H](CN(C)Cc1cncnc1)[C@@H](C)CN([C@@H](C)CO)S2(=O)=O`, the cytotoxicity call in the experiment on HSkMC and in the experiment with HepG2 was “inactive” in each case. In addition, the growth inhibition call in the experiment with S. aureus RN4220 was “inactive”.

Take `COc1ccc(S(=O)(=O)N(C)C[C@H]2Oc3c(NC(=O)Nc4c(C)noc4C)cccc3C(=O)N([C@H](C)CO)C[C@@H]2C)cc1`: the cytotoxicity call in the experiment on HSkMC and in the experiment with HepG2 was “inactive” each time. The growth inhibition call in the experiment on S. aureus RN4220 is “inactive”.

Consider `CNC(=O)C(=O)Nc1cc(F)ccc1F`, for which the cytotoxicity call with HSkMC and in the experiment with HepG2 was “inactive” each time. Also, in the experiment on S. aureus RN4220, the growth inhibition call is “inactive”.

As for `C[C@@H]1CCCCO[C@@H](CN(C)CC2CC2)[C@H](C)CN([C@@H](C)CO)C(=O)c2cc(NC(=O)Nc3cccc4ccccc34)ccc2O1`, the cytotoxicity call with HSkMC and in the experiment with HepG2 was “inactive” in each case. For the same compound, in the experiment on S. aureus RN4220, the growth inhibition call was “inactive”.

As for `CN(C)CCCNC(=O)C[C@H]1CC[C@@H]2[C@@H](COc3ccc(NC(=O)NC4CCCC4)cc3C(=O)N2C)O1`, the cytotoxicity call in the experiment with HSkMC and with HepG2 was “inactive” each time. Also, in the experiment on S. aureus RN4220, the growth inhibition call is “inactive”.

Turning to `C[C@H]1CN([C@@H](C)CO)S(=O)(=O)c2ccc(C#Cc3ccccc3F)cc2O[C@H]1CN(C)C(=O)Cc1ccncc1`, the cytotoxicity call in the experiment on HSkMC and in the experiment on HepG2 was “inactive” each time. Besides, the growth inhibition call with S. aureus RN4220 was “inactive”.

In the case of `C[C@@H]1CN([C@H](C)CO)C(=O)c2cc(C#CC3(O)CCCC3)cnc2O[C@H]1CN(C)C(=O)C1CCOCC1`, the cytotoxicity call in the experiment with HSkMC and in the experiment with HepG2 was “inactive” throughout. Also, the growth inhibition call in the experiment on S. aureus RN4220 was “inactive”.

`CC1CC2C3CCC4=CC(=O)C=CC4(C)C3(Cl)C(O)CC2(C)C1(OC(=O)c1ccco1)C(=O)CCl` (stereo not given): the cytotoxicity call in the experiment with HSkMC and in the experiment on HepG2 was “active” throughout. Further, the growth inhibition call in the experiment on S. aureus RN4220 was “inactive”.

Turning to `Cc1noc(C)c1NC(=O)Nc1ccc2c(c1)C(=O)N([C@H](C)CO)C[C@@H](C)[C@@H](CN(C)S(=O)(=O)c1cn(C)cn1)O2`, the cytotoxicity call in the experiment with HSkMC and with HepG2 was “inactive” throughout. Moreover, the growth inhibition call in the experiment on S. aureus RN4220 was “inactive”.

Take `O=C(NC[C@@H](O)CO)c1c(I)c(C(=O)NC[C@@H](O)CO)c(I)c(N(CCO)C(=O)CO)c1I`: the cytotoxicity call with HSkMC and in the experiment with HepG2 was “inactive” each time. Besides, in the experiment on S. aureus RN4220, the growth inhibition call is “inactive”.

As to `C[C@@H]1CCCCO[C@H](CN(C)C(=O)CCC(F)(F)F)[C@@H](C)CN([C@@H](C)CO)C(=O)c2cc(NC(=O)c3ccccc3)ccc2O1`, the cytotoxicity call in the experiment with HSkMC and in the experiment on HepG2 was “inactive” each time. In the experiment on S. aureus RN4220, the growth inhibition call was “inactive”.

As for `COCC#Cc1cnc2c(c1)C(=O)N([C@H](C)CO)C[C@H](C)[C@H](CN(C)C(=O)Nc1cc(F)ccc1F)O2`, the cytotoxicity call in the experiment with HSkMC and in the experiment on HepG2 was “inactive” throughout. Further, the growth inhibition call in the experiment with S. aureus RN4220 is “inactive”.

Take `Cc1ccc(S(=O)(=O)Nc2cccc3c2O[C@H](CN(C)CC2CC2)[C@H](C)CN([C@@H](C)CO)C3=O)cc1`: the cytotoxicity call in the experiment on HSkMC and with HepG2 was “inactive” each time. Moreover, the growth inhibition call in the experiment with S. aureus RN4220 was “inactive”.

Regarding `Cc1ccc2nc(/N=C/c3ccc(Cl)cc3Cl)sc2c1`, the cytotoxicity call in the experiment with HSkMC and in the experiment on HepG2 was “inactive” in each case. For the same compound, the growth inhibition call in the experiment on S. aureus RN4220 is “inactive”.

With `COc1ccc(NC(=O)N(C)C[C@@H]2OCCCC[C@H](C)Oc3ccc(NS(=O)(=O)c4c(C)noc4C)cc3C(=O)N([C@@H](C)CO)C[C@H]2C)cc1`, the cytotoxicity call in the experiment on HSkMC (human skeletal muscle cells) and in the experiment on HepG2 was “inactive” each time. Also, the growth inhibition call in the experiment on S. aureus RN4220 was “inactive”.

For the compound `COc1ccc(S(=O)(=O)N(C)C[C@H]2Oc3ccc(N(C)C)cc3C(=O)N([C@@H](C)CO)C[C@@H]2C)cc1`, the cytotoxicity call with HSkMC and with HepG2 was “inactive” throughout. For the same compound, in the experiment with S. aureus RN4220, the growth inhibition call is “inactive”.

`COc1ccc(CNC(=O)C[C@@H]2CC[C@H]3[C@H](COc4ccc(NC(=O)C5CC5)cc4C(=O)N3C)O2)cc1`: the cytotoxicity call with HSkMC and in the experiment with HepG2 was “inactive” each time. The growth inhibition call with S. aureus RN4220 was “inactive”.
